From the supplement of paper PMC8728848
Some of the results follow.

Assays:
Assay in all cases: glycan array binding signal (z-score within array); higher = stronger binding
Details in all cases: glycan notation: IUPAC condensed, linker removed
[1] = target: Fuc(a1-2)Gal6S(b1-3)GlcNAc
Method in brief: (§1)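 The Consortium for Functional Glycomics database supplied 3228 glycan arrays, of which those lacking an available protein sequence were dropped. The binding signal, a within-array Z-score, was averaged across arrays of the same protein sequence and across linkers. Negative scores can be read as non-binding.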

[2] = target: Fuc(a1-2)Gal6S(b1-3)GlcNAc6S
Method in brief: as §1

[3] = target: Fuc(a1-2)Gal6S(b1-4)Glc
Method in brief: as §1

[4] = target: Fuc(a1-2)Gal6S(b1-4)Glc6S
Method in brief: as §1

[5] = target: Fuc(a1-2)[Gal(a1-3)]Gal
Method in brief: as §1

[6] = target: Fuc(a1-2)[Gal(a1-3)]Gal(b1-3)GalNAc
Method in brief: as §1

[7] = target: Fuc(a1-2)[Gal(a1-3)]Gal(b1-3)GalNAc(b1-3)Gal(a1-4)Gal(b1-4)Glc
Method in brief: as §1

[8] = target: Fuc(a1-2)[Gal(a1-3)]Gal(b1-3)GlcNAc
Method in brief: as §1

[9] = target: Fuc(a1-2)[Gal(a1-3)]Gal(b1-3)GlcNAc(b1-2)Man(a1-3)[Fuc(a1-2)[Gal(a1-3)]Gal(b1-3)GlcNAc(b1-2)Man(a1-6)]Man(b1-4)GlcNAc(b1-4)GlcNAc
Method in brief: as §1

[10] = target: Fuc(a1-2)[Gal(a1-3)]Gal(b1-3)GlcNAc(b1-2)Man(a1-3)[Fuc(a1-2)[Gal(a1-3)]Gal(b1-3)GlcNAc(b1-2)Man(a1-6)]Man(b1-4)GlcNAc(b1-4)[Fuc(a1-6)]GlcNAc
Method in brief: as §1

[11] = target: Fuc(a1-2)[Gal(a1-3)]Gal(b1-3)GlcNAc(b1-3)GalNAc
Method in brief: as §1

[12] = target: Fuc(a1-2)[Gal(a1-3)]Gal(b1-3)GlcNAc(b1-6)GalNAc
Method in brief: as §1

[13] = target: Fuc(a1-2)[Gal(a1-3)]Gal(b1-4)Glc
Method in brief: as §1

[14] = target: Fuc(a1-2)[Gal(a1-3)]Gal(b1-4)GlcNAc
Method in brief: as §1

[15] = target: Fuc(a1-2)[Gal(a1-3)]Gal(b1-4)GlcNAc(b1-2)Man
Method in brief: as §1

[16] = target: Fuc(a1-2)[Gal(a1-3)]Gal(b1-4)GlcNAc(b1-2)Man(a1-3)[Fuc(a1-2)[Gal(a1-3)]Gal(b1-4)GlcNAc(b1-2)Man(a1-6)]Man(b1-4)GlcNAc(b1-4)GlcNAc
Method in brief: as §1

[17] = target: Fuc(a1-2)[Gal(a1-3)]Gal(b1-4)GlcNAc(b1-2)Man(a1-3)[Fuc(a1-2)[Gal(a1-3)]Gal(b1-4)GlcNAc(b1-2)Man(a1-6)]Man(b1-4)GlcNAc(b1-4)[Fuc(a1-6)]GlcNAc
Method in brief: as §1

[18] = target: Fuc(a1-2)[Gal(a1-3)]Gal(b1-4)GlcNAc(b1-3)GalNAc
Method in brief: as §1

[19] = target: Fuc(a1-2)[Gal(a1-3)]Gal(b1-4)GlcNAc(b1-3)[Fuc(a1-2)[Gal(a1-3)]Gal(b1-4)GlcNAc(b1-6)]GalNAc
Method in brief: as §1

[20] = target: Fuc(a1-2)[Gal(a1-3)]Gal(b1-4)GlcNAc(b1-6)GalNAc
Method in brief: as §1

[21] = target: Fuc(a1-2)[Gal(a1-3)]Gal(b1-4)[Fuc(a1-3)]Glc
Method in brief: as §1

[22] = target: Fuc(a1-2)[Gal(a1-3)]Gal(b1-4)[Fuc(a1-3)]GlcNAc
Method in brief: as §1

[23] = target: Fuc(a1-2)[Gal(a1-3)]Gal(b1-4)[Fuc(a1-3)]GlcNAc(b1-3)GalNAc
Method in brief: as §1

[24] = target: Fuc(a1-2)[Gal(a1-4)]Gal(b1-4)GlcNAc
Method in brief: as §1

[25] = target: Fuc(a1-2)[GalNAc(a1-3)]Gal
Method in brief: as §1

[26] = target: Fuc(a1-2)[GalNAc(a1-3)]Gal(b1-3)GalNAc(a1-3)[Fuc(a1-2)]Gal(b1-4)GlcNAc
Method in brief: as §1

[27] = target: Fuc(a1-2)[GalNAc(a1-3)]Gal(b1-3)GalNAc(b1-3)Gal(a1-4)Gal(b1-4)Glc
Method in brief: as §1

[28] = target: Fuc(a1-2)[GalNAc(a1-3)]Gal(b1-3)GlcNAc
Method in brief: as §1

[29] = target: Fuc(a1-2)[GalNAc(a1-3)]Gal(b1-3)GlcNAc(b1-2)Man(a1-3)[Fuc(a1-2)[GalNAc(a1-3)]Gal(b1-3)GlcNAc(b1-2)Man(a1-6)]Man(b1-4)GlcNAc(b1-4)GlcNAc
Method in brief: as §1

[30] = target: Fuc(a1-2)[GalNAc(a1-3)]Gal(b1-3)GlcNAc(b1-2)Man(a1-3)[Fuc(a1-2)[GalNAc(a1-3)]Gal(b1-3)GlcNAc(b1-2)Man(a1-6)]Man(b1-4)GlcNAc(b1-4)[Fuc(a1-6)]GlcNAc
Method in brief: as §1

[31] = target: Fuc(a1-2)[GalNAc(a1-3)]Gal(b1-3)GlcNAc(b1-3)GalNAc
Method in brief: as §1

[32] = target: Fuc(a1-2)[GalNAc(a1-3)]Gal(b1-3)GlcNAc(b1-6)GalNAc
Method in brief: as §1

[33] = target: Fuc(a1-2)[GalNAc(a1-3)]Gal(b1-4)Glc
Method in brief: as §1

[34] = target: Fuc(a1-2)[GalNAc(a1-3)]Gal(b1-4)GlcNAc
Method in brief: as §1

[35] = target: Fuc(a1-2)[GalNAc(a1-3)]Gal(b1-4)GlcNAc(b1-2)Man
Method in brief: as §1

[36] = target: Fuc(a1-2)[GalNAc(a1-3)]Gal(b1-4)GlcNAc(b1-2)Man(a1-3)[Fuc(a1-2)[GalNAc(a1-3)]Gal(b1-4)GlcNAc(b1-2)Man(a1-6)]Man(b1-4)GlcNAc(b1-4)GlcNAc
Method in brief: as §1

[37] = target: Fuc(a1-2)[GalNAc(a1-3)]Gal(b1-4)GlcNAc(b1-2)Man(a1-3)[Fuc(a1-2)[GalNAc(a1-3)]Gal(b1-4)GlcNAc(b1-2)Man(a1-6)]Man(b1-4)GlcNAc(b1-4)[Fuc(a1-6)]GlcNAc
Method in brief: as §1

[38] = target: Fuc(a1-2)[GalNAc(a1-3)]Gal(b1-4)GlcNAc(b1-3)Gal(b1-4)GlcNAc
Method in brief: as §1

[39] = target: Fuc(a1-2)[GalNAc(a1-3)]Gal(b1-4)GlcNAc(b1-3)Gal(b1-4)GlcNAc(b1-3)Gal(b1-4)GlcNAc
Method in brief: as §1

[40] = target: Fuc(a1-2)[GalNAc(a1-3)]Gal(b1-4)GlcNAc(b1-3)GalNAc
Method in brief: as §1

[41] = target: Fuc(a1-2)[GalNAc(a1-3)]Gal(b1-4)GlcNAc(b1-3)[Fuc(a1-2)[GalNAc(a1-3)]Gal(b1-4)GlcNAc(b1-6)]GalNAc
Method in brief: as §1

[42] = target: Fuc(a1-2)[GalNAc(a1-3)]Gal(b1-4)GlcNAc(b1-6)GalNAc
Method in brief: as §1

[43] = target: Fuc(a1-2)[GalNAc(a1-3)]Gal(b1-4)[Fuc(a1-3)]GlcNAc
Method in brief: as §1

[44] = target: Fuc(a1-2)[GalNAc(a1-3)]Gal(b1-4)[Fuc(a1-3)]GlcNAc(b1-3)GalNAc
Method in brief: as §1

[45] = target: Fuc(a1-2)[GalNAc(a1-4)]Gal(b1-4)GlcNAc
Method in brief: as §1

B1: DC-ASGPR S+GEE (Homo sapiens) (protein)
chain: MTRTYENFQYLENKVKVQGFKNGPLPLQSLLQRLRSGPCHLLLSLGLGLLLLVIICVVGFQNSKFQRDLVTLRTDFSNFTSNTVAEIQALTSQGSSLEETIASLKAEVEGFKQERQAVHSEMLLRVQQLVQDLKKLTCQVATINNNGEEASTEGTCCPVNWVEHQDSCYWFSHSGMSWAEAEKYCQLKNAHLVVINSREEQNFVQKYLGSAYTWMGLSDPEGAWKWVDGTDYATGFQNWKPGQPDDWQGHGLGGGEDCAHFHPDGRWNDDVCQRPYHWVCEAGLGQTSQESH
[1]
  glycan array binding signal (z-score): -0.326
[2]
  glycan array binding signal (z-score): 0.226
[3]
  glycan array binding signal (z-score): -0.337
[4]
  glycan array binding signal (z-score): 0.235
[5]
  glycan array binding signal (z-score): -0.286
[6]
  glycan array binding signal (z-score): -0.301
[7]
  glycan array binding signal (z-score): -0.348
[8]
  glycan array binding signal (z-score): -0.309
[9]
  glycan array binding signal (z-score): -0.338
[10]
  glycan array binding signal (z-score): -0.128
[11]
  glycan array binding signal (z-score): -0.31
[12]
  glycan array binding signal (z-score): 3.42
[13]
  glycan array binding signal (z-score): -0.391
[14]
  glycan array binding signal (z-score): 0.03
[15]
  glycan array binding signal (z-score): -0.264
[16]
  glycan array binding signal (z-score): -0.323
[17]
  glycan array binding signal (z-score): -0.192
[18]
  glycan array binding signal (z-score): -0.318
[19]
  glycan array binding signal (z-score): -0.256
[20]
  glycan array binding signal (z-score): -0.314
[21]
  glycan array binding signal (z-score): -0.286
[22]
  glycan array binding signal (z-score): -0.511
[23]
  glycan array binding signal (z-score): -0.286
[24]
  glycan array binding signal (z-score): -0.38
[25]
  glycan array binding signal (z-score): 0.972
[26]
  glycan array binding signal (z-score): 0.763
[27]
  glycan array binding signal (z-score): 0.842
[28]
  glycan array binding signal (z-score): 0.865
[29]
  glycan array binding signal (z-score): 0.728
[30]
  glycan array binding signal (z-score): 0.455
[31]
  glycan array binding signal (z-score): 0.296
[32]
  glycan array binding signal (z-score): 3.69
[33]
  glycan array binding signal (z-score): 0.468
[34]
  glycan array binding signal (z-score): 0.712
[35]
  glycan array binding signal (z-score): 0.714
[36]
  glycan array binding signal (z-score): 0.788
[37]
  glycan array binding signal (z-score): 0.233
[38]
  glycan array binding signal (z-score): 0.807
[39]
  glycan array binding signal (z-score): 0.679
[40]
  glycan array binding signal (z-score): 0.456
[41]
  glycan array binding signal (z-score): 0.739
[42]
  glycan array binding signal (z-score): 3.35
[43]
  glycan array binding signal (z-score): 0.505
[44]
  glycan array binding signal (z-score): -0.099
[45]
  glycan array binding signal (z-score): 3.75
